{"source": "PubChem BioAssay AID485281", "about": "(National Center for Advancing Translational Sciences (NCATS), 2010)", "note": "“And” between values parts separate entries of the source, which are not always exact repeats. Identical values can stand only once. The whole screen tested about 350,000 compounds, of which about 260 (0.074%) were called active. The shares of active, inactive and inconclusive entries below differ from those in the screen. Calls come from the whole dose curve; as a rule, active = well fitted inhibition curve with a large enough effect; inconclusive = small, poorly fitted or top-dose-only effect; inactive = no such curve, though single readings can be large or run the other way. A potency beside an inconclusive call is a rough fit, not a confirmed value. Potency is the fitted concentration of half-maximal effect; tags give direction and shape of the fitted curve."}
{"target": "Ferritin light chain (Equus caballus) (UniProt P02791)", "sequence (P02791 whole entry, looked up)": "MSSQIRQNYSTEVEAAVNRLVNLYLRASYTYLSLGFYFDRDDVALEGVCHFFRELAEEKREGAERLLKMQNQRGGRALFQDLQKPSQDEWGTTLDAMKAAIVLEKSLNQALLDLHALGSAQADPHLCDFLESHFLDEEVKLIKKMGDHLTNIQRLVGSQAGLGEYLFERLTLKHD", "assay": "qHTS Assay for Identification of Novel General Anesthetics; note: nearly all actives have a fitted effect of over 20% in size", "details": "apoferritin/1-aminoanthracene competitive binding, fluorescence; series mostly up to 77.5 µM", "how_it_was_run": "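Read-out: endpoint 1-AMA fluorescence, excitation 380 nm and emission 535 nm, after compounds sit 10 min at room temperature with 10 uM horse-spleen apoferritin in 50% saturated 1-AMA/PBS. Values come from four-parameter Hill fits.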"}
{"molecule": "CNc1oc(-c2cccc3ccccc23)nc1C#N", "Potency": "inactive"}
{"molecule": "Cc1cc(NC(=O)CSc2nc3c([nH]c4ccccc43)c(=O)n2-c2cccc(C(F)(F)F)c2)no1", "Potency": "inactive"}
{"molecule": "COC(=O)c1ccc(CNC(=O)COC(=O)C23CC4CC(CC(C4)C2)C3)cc1", "Potency": "inconclusive: 15.8 µM [inhibitor, partial curve]"}
{"molecule": "CCn1cnc2cc(NS(=O)(=O)c3ccc(C)cc3)ccc21", "Potency": "inconclusive: 35.5 µM [inhibitor, partial curve]"}
{"molecule": "Cc1ccccc1N1CCN(C2CCCN(C(=O)c3cn4cccc(C)c4n3)C2)CC1", "note": "(stereo unspecified)", "Potency": "inconclusive: 22.4 µM [inhibitor, partial curve]"}
{"molecule": "CC(Oc1ccccc1)c1ccn[nH]1", "note": "(stereo unspecified)", "Potency": "inconclusive: 35.5 µM [inhibitor, partial curve]"}
{"molecule": "COc1ccc(S(=O)(=O)N2CCCCCC2)cc1C(=O)OCc1c(C)noc1C", "Potency": "inconclusive: 20 µM [inhibitor, partial curve]"}
{"molecule": "COc1ccc(/C=C/C(=O)c2cc3c(cc2N)OCO3)cc1", "Potency": "inactive"}
{"molecule": "COc1ccc(-c2cc(C(=O)Nc3c(C)nn(Cc4ccccc4Cl)c3C)no2)cc1OC", "Potency": "inconclusive: 8.91 µM [inhibitor, partial curve]"}
{"molecule": "CC1CCCN(C(=O)C2COc3ccccc3O2)C1", "note": "(stereo unspecified)", "Potency": "inconclusive: 17.8 µM [inhibitor, partial curve]"}
{"molecule": "NC(=O)CC(NC(=O)Cc1ccc(Br)cc1)c1ccc(N2CCN(c3ccccn3)CC2)c([N+](=O)[O-])c1", "note": "(stereo unspecified)", "Potency": "inactive"}
{"molecule": "O=C(NCC1COCCO1)c1cc(COc2ccc(F)cc2F)on1", "note": "(stereo unspecified)", "Potency": "inconclusive: 39.8 µM [inhibitor, single point]"}
{"molecule": "O=C(Nc1ccc(C(=O)N2CCCC2)cc1)c1ccc2c(c1)OCO2", "Potency": "inconclusive: 31.6 µM [inhibitor, single point]"}
{"molecule": "COc1ccc(C(=S)N2CCOCC2)cc1OC(=O)c1ccc([N+](=O)[O-])cc1", "Potency": "inactive"}
{"molecule": "CCCCOC(=O)c1cccc(NC(=O)/C=C/c2ccccc2Cl)c1", "Potency": "inactive"}
{"molecule": "COC(=O)c1ccc(Cl)cc1NC(=O)N(Cc1ccc(OC)cc1)C1CCN(C(C)=O)CC1", "Potency": "inactive"}
{"molecule": "Cc1cccc(NC(=S)N2CCN(S(=O)(=O)c3ccccc3)CC2)c1", "Potency": "inconclusive: 17.8 µM [inhibitor, partial curve]"}
{"molecule": "CCCCCCc1cc2cc(-c3nnc(-c4ccccc4O)o3)c(=O)oc2cc1O", "Potency": "inactive"}
{"molecule": "O=C(/C=C/c1ccc(O)cc1)c1c(O)cc(O)cc1O", "Potency": "inconclusive: 44.7 µM [inhibitor, single point]"}
{"molecule": "CCC(=O)N1CCc2cc(Br)cc(S(=O)(=O)CCC(=O)NCc3ccco3)c21", "Potency": "inactive"}
{"molecule": "CCNc1nc(N)nc(Oc2ccc(C(=O)OC)cc2)n1", "Potency": "inactive"}
{"molecule": "COc1cc(OC)cc(C(=O)Nc2cc(-c3nc4cccnc4s3)ccc2C)c1", "Potency": "inconclusive: 3.98 µM [inhibitor, single point]"}
{"molecule": "Cc1cc[n+](CC(=O)c2ccc3c(c2)OCCO3)cc1", "Potency": "inactive"}
{"molecule": "COc1ccc(C(=O)N/N=C/c2ccc(N3CCOCC3)o2)cc1OC", "Potency": "inactive"}
{"molecule": "Cc1ccc(-n2nc(C(=O)N(C)Cc3ccccc3)c3c4ccccc4n(C)c3c2=O)cc1", "Potency": "inactive"}
{"molecule": "O=C(CNC(=O)c1ccc(Br)cc1)N/N=C/c1cccnc1", "Potency": "inconclusive: 4.47 µM [inhibitor, full curve]"}
{"molecule": "CC(C)[C@@H](C(=O)OCC(=O)Nc1ccc2c(c1)OCO2)N1C(=O)c2ccccc2C1=O", "Potency": "inconclusive: 25.1 µM [inhibitor, partial curve]"}
{"molecule": "CCN(CC)C(=O)CSCc1cnn(-c2ccccc2)c1-n1cccc1", "Potency": "inconclusive: 15.8 µM [inhibitor, partial curve]"}
{"molecule": "COCc1cc(=O)[nH]c2cc(NC(=O)C3CC3)c(C)cc12", "Potency": "inactive"}
{"molecule": "COc1cc(OC)c(C(=O)Nc2cccc(C(C)=O)c2)cc1OC", "Potency": "inactive"}
{"molecule": "Cc1cc(SCC(=O)NN=C2CCN(C(C)C)CC2)c(C)cc1Br", "Potency": "inconclusive: 50.1 µM [inhibitor, partial curve]"}
{"molecule": "Cc1cc(SCc2ccc(Cl)cc2Cl)nc(=O)[nH]1", "Potency": "inconclusive: 50.1 µM [inhibitor, single point]"}
{"molecule": "CCN1CCC2(CC1)C(C#N)=C(N)Oc1c2sc2nc(C)cc(C)c12", "Potency": "inactive"}
{"molecule": "Cc1ccccc1C(=O)N(Cc1ccc(N(C)C)cc1)CC1CCCO1", "note": "(stereo unspecified)", "Potency": "inactive"}
{"molecule": "O=C(CCN1CCN(Cc2ccccc2)CC1)Nc1ccc(OCc2ccccc2)cc1", "Potency": "inconclusive: 35.5 µM [inhibitor, partial curve]"}
{"molecule": "O=[N+]([O-])c1cc(C(F)(F)F)ccc1Sc1ccc2ccccc2n1", "Potency": "inconclusive: 22.4 µM [inhibitor, partial curve]"}
{"molecule": "CC(=O)Oc1cccc(N2C(=O)C3CC=C(Cl)CC3C2=O)c1", "note": "(stereo unspecified)", "Potency": "inconclusive: 22.4 µM [inhibitor, partial curve]"}
{"molecule": "CC(=O)Oc1cc(C)cc2oc(=O)cc(-c3ccccc3)c12", "Potency": "inconclusive: 35.5 µM [inhibitor, single point]"}
{"molecule": "CS(=O)(=O)N1CCN(c2ccc(C(=O)NC3C4CC5CC(C4)CC3C5)cc2[N+](=O)[O-])CC1", "note": "(stereo unspecified)", "Potency": "inconclusive: 31.6 µM [inhibitor, partial curve]"}
{"molecule": "CCOC(=O)c1noc2ncnc(NCc3ccccc3OC)c12", "Potency": "inactive"}
{"molecule": "O=S(=O)(Nc1nc2ccccc2[nH]1)c1ccc2ccccc2c1", "Potency": "inconclusive: 31.6 µM [inhibitor, partial curve]"}
{"molecule": "COCc1c(C(=O)OCC(=O)N2c3ccccc3CC2C)oc2ccccc12", "note": "(stereo unspecified)", "Potency": "inconclusive: 25.1 µM [inhibitor, partial curve]"}
{"molecule": "CCOC(=O)c1sc(NC(=O)c2cccnc2)c(C#N)c1C", "Potency": "inactive"}
{"molecule": "CC(C)(C)OC(=O)NCCc1nnc(SCc2ccc(Cl)cc2)o1", "Potency": "inconclusive: 35.5 µM [inhibitor, single point]"}
{"molecule": "COc1cccc2cc(C(=O)NCCN3CCOCC3)oc12", "Potency": "inconclusive: 25.1 µM [inhibitor, partial curve]"}
{"molecule": "CC1CCc2sc(C(=O)Nc3ccc(N4CCOCC4)cc3)cc2C1", "note": "(stereo unspecified)", "Potency": "inconclusive: 28.2 µM [inhibitor, partial curve]"}
{"molecule": "Cc1ccc(N=c2ssnc2Cl)cc1", "Potency": "inconclusive: 25.1 µM [inhibitor, partial curve]"}
{"molecule": "CCN1CCN(CCCNC(=O)Cn2c(-c3cccs3)cc3cc(F)ccc32)CC1", "Potency": "inactive"}
{"molecule": "Cc1c(Cl)cccc1NC(=O)C1C2C=CC(C2)C1C(=O)O", "note": "(stereo unspecified)", "Potency": "inconclusive: 31.6 µM [inhibitor, partial curve]"}
{"molecule": "Cc1snc(S(=O)(=O)/C(C#N)=N/Nc2ccc(C(F)(F)F)cc2)c1C#N", "Potency": "inconclusive: 35.5 µM [inhibitor, partial curve]"}
{"molecule": "Cc1ccc(C)c(Nc2nn3c(=O)c4cc5c(cc4nc3s2)OCO5)c1", "Potency": "inconclusive: 10 µM [inhibitor, partial curve]"}
{"molecule": "Nc1ccc2oc(-c3ccccc3Cl)cc(=O)c2c1O", "Potency": "inconclusive: 35.5 µM [inhibitor, single point] and inconclusive: 35.5 µM [inhibitor, partial curve]"}
{"molecule": "CCC(C)C1NC(=S)N(Cc2ccccc2)C1=O", "note": "(stereo unspecified)", "Potency": "inconclusive: 31.6 µM [inhibitor, partial curve]"}
{"molecule": "CCCCN(C)CCNC(=O)CN1C(=O)CSc2ccc(S(=O)(=O)N3CCCCC3)cc21", "Potency": "inconclusive: 12.6 µM [inhibitor, partial curve]"}
{"molecule": "NS(=O)(=O)c1ccc(CCNc2nc(CN3CCCCC3)nc3sc4c(c23)CCC4)cc1", "Potency": "inconclusive: 44.7 µM [inhibitor, single point]"}
{"molecule": "Cc1[nH]c(=O)nc(SCc2cccc(Cl)c2)c1C#N", "Potency": "inconclusive: 25.1 µM [inhibitor, single point]"}
